A compilation of properties of binary mixtures (doi:10.1021/jp071051m)
The densities may have been worked out from excess volumes.

Test: xn = mol fraction of the nth substance listed
Conditions: 298.15 K, 101 kPa

Question: Which results are given for CCCC[n+]1ccn(C)c1.O=C([O-])C(F)(F)F + CC#N?
Answer: mass density (x2 = 0): 1212.8 kg/m3; mass density (x2 = 0.0798): 1208 kg/m3; mass density (x2 = 0.1769): 1197.8 kg/m3; mass density (x2 = 0.3539): 1169.9 kg/m3; mass density (x2 = 0.4443): 1150.8 kg/m3; mass density (x2 = 0.547): 1123.3 kg/m3; mass density (x2 = 0.6553): 1084.3 kg/m3; mass density (x2 = 0.7649): 1027.7 kg/m3; mass density (x2 = 0.8457): 970.5 kg/m3; mass density (x2 = 0.8802): 939.8 kg/m3

Question: For CCCC[n+]1ccn(C)c1.F[P-](F)(F)(F)(F)F + CC(C)=O, which mass density (x2 = 0) is on record?
Answer: 1364 kg/m3

Question: What about the mass density (x2 = 0.1006) of the same compound?
Answer: 1355 kg/m3

Question: What about the mass density (x2 = 0.1935) of the same compound?
Answer: 1333 kg/m3

Question: And the mass density (x2 = 0.3033)?
Answer: 1302.6 kg/m3

Question: And the mass density (x2 = 0.3988)?
Answer: 1271.9 kg/m3

Question: What about the mass density (x2 = 0.6016) of the same compound?
Answer: 1189.8 kg/m3

Question: And the mass density (x2 = 0.6992)?
Answer: 1125.5 kg/m3

Question: What about the mass density (x2 = 0.8433) of the same compound?
Answer: 1000.8 kg/m3

Question: And the mass density (x2 = 0.8853)?
Answer: 958 kg/m3

Question: For ClCCl + CCCC[n+]1ccn(C)c1.F[P-](F)(F)(F)(F)F, which mass density (x1 = 0.0753) is on record?
Answer: 1364 kg/m3

Question: And the mass density (x1 = 0.163)?
Answer: 1363.5 kg/m3

Question: And the mass density (x1 = 0.3361)?
Answer: 1362.2 kg/m3

Question: What about the mass density (x1 = 0.5384) of the same compound?
Answer: 1360.3 kg/m3

Question: What about the mass density (x1 = 0.6462) of the same compound?
Answer: 1358.3 kg/m3

Question: What about the mass density (x1 = 0.738) of the same compound?
Answer: 1354.7 kg/m3

Question: And the mass density (x1 = 0.8242)?
Answer: 1349.8 kg/m3

Question: What about the mass density (x1 = 0.8678) of the same compound?
Answer: 1344.8 kg/m3

Question: What does the source list for CCCC[n+]1ccn(C)c1.F[P-](F)(F)(F)(F)F + CCOC(C)=O?
Answer: mass density (x2 = 0): 1364 kg/m3; mass density (x2 = 0.0883): 1348.1 kg/m3; mass density (x2 = 0.1793): 1330.3 kg/m3; mass density (x2 = 0.4691): 1254.8 kg/m3; mass density (x2 = 0.5703): 1217.4 kg/m3; mass density (x2 = 0.6738): 1170.5 kg/m3; mass density (x2 = 0.8339): 1067 kg/m3

Question: Which mass density (x2 = 0) does the source give for CCCC[n+]1ccn(C)c1.O=C([O-])C(F)(F)F + ClC(Cl)Cl here?
Answer: 1212.8 kg/m3

Question: And the mass density (x2 = 0.0918)?
Answer: 1225.3 kg/m3

Question: And the mass density (x2 = 0.1815)?
Answer: 1238 kg/m3

Question: What about the mass density (x2 = 0.2793) of the same compound?
Answer: 1256.2 kg/m3

Question: What about the mass density (x2 = 0.3861) of the same compound?
Answer: 1276.5 kg/m3

Question: What about the mass density (x2 = 0.482) of the same compound?
Answer: 1297.4 kg/m3

Question: And the mass density (x2 = 0.5804)?
Answer: 1321.5 kg/m3

Question: And the mass density (x2 = 0.6467)?
Answer: 1340 kg/m3

Question: And the mass density (x2 = 0.6812)?
Answer: 1350 kg/m3

Question: And the mass density (x2 = 0.729)?
Answer: 1366.3 kg/m3

Question: And the mass density (x2 = 0.7847)?
Answer: 1384.7 kg/m3

Question: And the mass density (x2 = 0.8677)?
Answer: 1418.6 kg/m3

Question: For CCCC[n+]1ccn(C)c1.F[P-](F)(F)(F)(F)F + ClCCl, which mass density (x2 = 0) is on record?
Answer: 1364 kg/m3

Question: Which results are given for CCCC[n+]1ccn(C)c1.O=C([O-])C(F)(F)F + O?
Answer: mass density (x2 = 0): 1212.8 kg/m3; mass density (x2 = 0.1093): 1216 kg/m3; mass density (x2 = 0.197): 1215.5 kg/m3; mass density (x2 = 0.2888): 1211.8 kg/m3; mass density (x2 = 0.396): 1209.7 kg/m3; mass density (x2 = 0.4921): 1206.7 kg/m3; mass density (x2 = 0.5897): 1199 kg/m3; mass density (x2 = 0.6918): 1186.9 kg/m3; mass density (x2 = 0.7927): 1170.7 kg/m3; mass density (x2 = 0.884): 1138.2 kg/m3; mass density (x2 = 0.9195): 1107.1 kg/m3

Question: What does the source list for CCCC[n+]1ccn(C)c1.F[P-](F)(F)(F)(F)F + c1ccncc1?
Answer: mass density (x2 = 0): 1364 kg/m3; mass density (x2 = 0.0964): 1350.8 kg/m3; mass density (x2 = 0.1929): 1333 kg/m3; mass density (x2 = 0.291): 1313.9 kg/m3; mass density (x2 = 0.3899): 1291.5 kg/m3; mass density (x2 = 0.5922): 1233.5 kg/m3; mass density (x2 = 0.6978): 1193.9 kg/m3; mass density (x2 = 0.7695): 1158.1 kg/m3; mass density (x2 = 0.8372): 1118.1 kg/m3; mass density (x2 = 0.8781): 1090 kg/m3
